# Laboratory results from the supplement of paper PMC7826260.
# The list shows a part of the results. Cleavage of a single-stranded DNA pool by Rep nickase domains was read by sequencing at 3 µM enzyme and 37 °C for 1 h; the strands have 90 letters, of which the middle is given. The score is log2 (uncut reads / reads without enzyme); the lower, the more was cut; hits are not called. Because reads are shares of a total, they shift together, so uncut sequences can rise above 0 when many others are cut.
# Tested on: T1, Rep nickase domain of porcine circovirus 2
# T1 sequence (Rep 2-116, printed without the tag): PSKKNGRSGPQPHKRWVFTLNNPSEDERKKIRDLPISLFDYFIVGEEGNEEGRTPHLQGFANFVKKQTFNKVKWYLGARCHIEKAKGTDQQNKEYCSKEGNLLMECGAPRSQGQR
# Assay: uncleaved DNA left, log2 of reads against the no-enzyme library (log2 ratio); higher = less cleavage (more negative = more Rep cleavage of the k-mer); sequences stand for … in CTCGTCCG…ACCGGAGA
# Method: (§1)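 A pool of 90-nt single-stranded DNAs with seven random bases just before the constant AC of the nick site (name = the seven bases) was cut by 3 µM recombinant His6-SUMO-tagged Rep nickase domain (300 nM DNA, 50 mM HEPES pH 8.0, 50 mM NaCl, 1 mM MnCl2, 1 h, 37 °C, three replicates). Uncut DNA was amplified and sequenced.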
row,Sequence,uncleaved DNA left (log2)
1,AGGACCT,0.0842
2,GAAGGAG,0.177
3,AAACGAC,0.0453
4,GCGCAAG,0.124
5,GGTAAAG,0.271
6,ACGTATC,0.123
7,GACTACC,-0.623
8,GTCTGTA,0.0415
9,TGCTTCC,-0.089
10,AGGGAGG,0.176
11,CTGTATT,-3.54
12,TCAACCA,-0.806
13,TTGTAAG,0.0359
14,ACGAACG,0.0815
15,GCCCAAA,0.14
16,TGTGCAT,0.055
17,AATGCAG,0.191
18,ATCACGG,0.137
19,CCATACA,-0.135
20,TCTAGCG,0.132

row,Sequence,uncleaved DNA left (log2)
1,ATCTAAA,0.00847
2,ATCCCCC,-0.139
3,GTAGGAG,0.191
4,CCCCAGA,-0.13
5,ACACCGG,0.0867
6,CCTTCGA,0.0218
7,CTTTTGC,0.0319
8,GTACTGC,0.0568
9,ACGCCGG,0.134
10,CTGATAG,0.222
11,CACTGCC,-0.593
12,GTCTTGT,-0.0722
13,TGACGCA,-0.103
14,GGTTAAA,0.0443
15,CAACAGG,-0.0345
16,CTCTGTT,-3.09
17,GTTTGCC,-0.0125
18,TGTTCGA,0.0892
19,TTGTGAT,-2.08
20,GATGGAG,0.298

# Tested on: T2, Rep nickase domain of tomato golden mosaic virus
# T2 sequence (Rep 1-124, printed without the tag): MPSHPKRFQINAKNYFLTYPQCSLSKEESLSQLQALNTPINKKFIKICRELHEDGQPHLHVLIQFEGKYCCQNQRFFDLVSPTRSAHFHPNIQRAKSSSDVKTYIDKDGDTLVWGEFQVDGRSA
# Assay: as above
# Method: as §1
row,Sequence,uncleaved DNA left (log2)
1,AGGACCT,-0.0996
2,GAAGGAG,0.0301
3,AAACGAC,-0.105
4,GCGCAAG,0.226
5,GGTAAAG,-0.000753
6,ACGTATC,0.187
7,GACTACC,0.0239
8,GTCTGTA,-0.0593
9,TGCTTCC,-0.102
10,AGGGAGG,0.0231
11,CTGTATT,-0.49
12,TCAACCA,-0.0609
13,TTGTAAG,-0.113
14,ACGAACG,-0.0904
15,GCCCAAA,-0.017
16,TGTGCAT,-0.147
17,AATGCAG,0.0133
18,ATCACGG,0.15
19,CCATACA,-0.0733
20,TCTAGCG,-0.0711

row,Sequence,uncleaved DNA left (log2)
1,ATCTAAA,0.0439
2,ATCCCCC,-0.241
3,GTAGGAG,0.0385
4,CCCCAGA,-0.0473
5,ACACCGG,0.0217
6,CCTTCGA,-0.119
7,CTTTTGC,-0.119
8,GTACTGC,0.00848
9,ACGCCGG,0.0442
10,CTGATAG,0.0817
11,CACTGCC,-0.116
12,GTCTTGT,0.0545
13,TGACGCA,0.0501
14,GGTTAAA,0.185
15,CAACAGG,-0.0678
16,CTCTGTT,-0.137
17,GTTTGCC,-0.0747
18,TGTTCGA,-0.0577
19,TTGTGAT,0.0733
20,GATGGAG,0.0908

# Tested on: T3, Rep nickase domain of tomato yellow leaf curl virus
# T3 sequence (Rep 1-136, printed without the tag): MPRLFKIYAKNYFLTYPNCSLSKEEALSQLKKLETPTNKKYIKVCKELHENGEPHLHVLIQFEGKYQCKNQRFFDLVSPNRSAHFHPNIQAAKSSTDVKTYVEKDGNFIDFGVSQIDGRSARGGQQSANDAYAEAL
# Assay: as above
# Method: as §1
row,Sequence,uncleaved DNA left (log2)
1,AGGACCT,-0.0741
2,GAAGGAG,-0.0167
3,AAACGAC,-0.152
4,GCGCAAG,0.197
5,GGTAAAG,0.0806
6,ACGTATC,-0.0059
7,GACTACC,-0.0966
8,GTCTGTA,0.0507
9,TGCTTCC,0.0719
10,AGGGAGG,-0.0148
11,CTGTATT,0.0829
12,TCAACCA,-0.0683
13,TTGTAAG,-0.152
14,ACGAACG,0.00439
15,GCCCAAA,0.0162
16,TGTGCAT,0.00445
17,AATGCAG,0.0121
18,ATCACGG,-0.0338
19,CCATACA,-0.0546
20,TCTAGCG,0.00613

row,Sequence,uncleaved DNA left (log2)
1,ATCTAAA,-0.0686
2,ATCCCCC,-0.153
3,GTAGGAG,0.0661
4,CCCCAGA,-0.0916
5,ACACCGG,-0.0927
6,CCTTCGA,-0.094
7,CTTTTGC,-0.032
8,GTACTGC,-0.0444
9,ACGCCGG,-0.0128
10,CTGATAG,0.122
11,CACTGCC,-0.0716
12,GTCTTGT,-0.0268
13,TGACGCA,0.0685
14,GGTTAAA,0.0572
15,CAACAGG,0.0253
16,CTCTGTT,-0.0122
17,GTTTGCC,0.000127
18,TGTTCGA,0.0859
19,TTGTGAT,0.0465
20,GATGGAG,0.0776

# Tested on: T4, Rep nickase domain of wheat dwarf virus
# T4 sequence (Rep 1-137, printed without the tag): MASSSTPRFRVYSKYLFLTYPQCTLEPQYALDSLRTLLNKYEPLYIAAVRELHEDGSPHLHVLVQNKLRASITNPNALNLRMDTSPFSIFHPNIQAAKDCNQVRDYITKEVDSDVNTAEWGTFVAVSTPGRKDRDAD
# Assay: as above
# Method: as §1
row,Sequence,uncleaved DNA left (log2)
1,AGGACCT,0.0926
2,GAAGGAG,0.0478
3,AAACGAC,-0.0574
4,GCGCAAG,0.0667
5,GGTAAAG,0.0928
6,ACGTATC,0.0806
7,GACTACC,-0.00773
8,GTCTGTA,-0.0837
9,TGCTTCC,-0.105
10,AGGGAGG,0.00417
11,CTGTATT,-0.865
12,TCAACCA,-0.0126
13,TTGTAAG,-0.199
14,ACGAACG,-0.0356
15,GCCCAAA,-0.00198
16,TGTGCAT,-0.00797
17,AATGCAG,-0.0722
18,ATCACGG,0.103
19,CCATACA,-0.131
20,TCTAGCG,-0.218

row,Sequence,uncleaved DNA left (log2)
1,ATCTAAA,-0.0012
2,ATCCCCC,-0.111
3,GTAGGAG,0.0837
4,CCCCAGA,-0.0483
5,ACACCGG,-0.176
6,CCTTCGA,-0.175
7,CTTTTGC,-0.165
8,GTACTGC,0.031
9,ACGCCGG,-0.0118
10,CTGATAG,-0.118
11,CACTGCC,-0.152
12,GTCTTGT,0.0404
13,TGACGCA,0.0657
14,GGTTAAA,0.0707
15,CAACAGG,-0.126
16,CTCTGTT,-0.497
17,GTTTGCC,-0.0771
18,TGTTCGA,-0.0167
19,TTGTGAT,0.00303
20,GATGGAG,0.00913
